# Experimental data taken from the RNAGym collection of RNA variant scans (doi:10.7554/elife.90254).
# Read counts are not given, so values of variants with three or more changes are uncertain.
# B1: LINE1-full (parent)
# chain: UACGUAGGUGGUUUUCCCCUGAUAGUGCUAAGGGGGCCUGGAAGUUUGGACUGGGCAGAGCUCAACACAGCGUGGCAAAGUGGCUGUGGCUAGACUGCCUCUCUGGAUUCCUCGUCACUCAGCAGGGCAUCUCUGAGAGAAAUGCC
# Variants of: B1
# Test: self-cleavage, relative activity (ratio to wild type); higher = more cleavage; in vitro, sequencing; the parent is a self-cleaving ribozyme
row,Variant,self-cleavage
1,UACGUAGGUGGUUUUCCCCUGAUAGUGCUAAGGGGGCCUGGGAGUUUGGACUGGGCAGAGCUCAACACAGCGUGGCUAAGUGGCUGUGGCUAGACUGCCUCUCUGGAAUCCUCGUCACUCAGCAGGGCAUCUCUGAGAGAAAUGCC [A42G A77U U108A],0.52
2,UACGUAGGUGGUUUUCCCCUGAUAGUGCUAAGGGGGCCUGGGAGUUUGGACUGGGCAGAGCUCAACACAGCGUGGCAGAGUGGCUGUGGCUGGACUGCCUCUCUGGAUUCCUCGUCACUCAGCAGGGCAUCUCUGAGAGUAAUGCC [A42G A78G A92G A140U],0
3,UACGUAGGUGGUUUUCCCCUGAUAGUGCUAAGGGGGCCUGGGAGUUUGGACUGGGCAGAGCUCAACACAGCGUGGCAGAGUGGCUGUGGCUAGACUGCCUCUCUGGAUUCCUCGUCACUCAGCAGGGCAUCUCUGAGAGAAGUGCC [A42G A78G A142G],1.19
4,UACGUAGGUGGUUUUCCCCUGAUAGUGCUAAGGGGGCCUGGGAGUUUGGACUGGGCAGAGCUCAACACAGCGUGGCAGAGUGGCUGUGGCUAGACAGCCUCUCUGGAUUCCUCGUCACUCAGCAGGGCAUCUCUGAGAGAAAUGCC [A42G A78G U96A],0.03
5,UACGUAGGUGGUUUUCCCCUGAUAGUGCUAAGGGGGCCUGGGAGUUUGGACUGGGCAGAGCUCAACACAGCGUGGCAGAGUGGCUGUGGCUAGACUGCCUCUCAGGAUUCCUCGUCACUCUGCAGGGCAUCUCUGAGAGAAAUGCC [A42G A78G U104A A121U],0.97
6,UACGUAGGUGGUUUUCCCCUGAUAGUGCUAAGGGGGCCUGGGAGUUUGGACUGGGCAGAGCUCAACACAGCGUGGCAGAGUGGCUGUGGCUAGACUGCCUCUCUGGAUUCCUCGUCACUCAGCAGGGCAUCUCUGAGAGAAACGCC [A42G A78G U143C],1.37
7,UACGUAGGUGGUUUUCCCCUGAUAGUGCUAAGGGGGCCUGGGAGUUUGGACUGGGCAGAGCUCAACACAGCGUGGCAAGGUGGCUGCGGCUAGACUGCCUGUCUGGAUUCCUCGUCACUCAGCAGGGCAUCUCUGAGAGAAAUGCC [A42G A79G U87C C101G],1.84
8,UACGUAGGUGGUUUUCCCCUGAUAGUGCUAAGGGGGCCUGGGAGUUUGGACUGGGCAGAGCUCAACACAGCGUGGCAAGGUGGCUGUGGCUAGACUGCCUCUCUGGAUUCCCCGUCACUCAGCAGGGCAUCUCUGAGGGAAAUGCC [A42G A79G U112C A138G],1.15
9,UACGUAGGUGGUUUUCCCCUGAUAGUGCUAAGGGGGCCUGGGAGUUUGGACUGGGCAGAGCUCAACACAGCGUGGCAAGGUGGCUGUGGCUAGACUGCCUCUCUGGAUUCCUCGUCACUCAGCAGGGCAUCUCUGAGAGAAACGCC [A42G A79G U143C],1.44
10,UACGUAGGUGGUUUUCCCCUGAUAGUGCUAAGGGGGCCUGGGAGUUUGGACUGGGCAGAGCUCAACACAGCGUGGCAAAGUGGCUGUGGCUGGACUGCCCCUCUGGAUUCCUCGUCACUCAGCAGGGCAUCUCUGAGAGAAAUGCC [A42G A92G U100C],0
11,UACGUAGGUGGUUUUCCCCUGAUAGUGCUAAGGGGGCCUGGGAGUUUGGACUGGGCAGAGCUCAACACAGCGUGGCAAAGUGGCUGUGGCUGGACUGCCUCUCUGGAUUCCUCGUCACUCAGCAGGGCAACUCUGAGAGAAAUGCC [A42G A92G U130A],0.06
12,UACGUAGGUGGUUUUCCCCUGAUAGUGCUAAGGGGGCCUGGGAGUUUGGACUGGGCAGAGCUCAACACAGCGUGGCAAAGUGGCUGUGGCUAGGCUGCCUCCCUGGAUUCCUCGUCACUCAGCAGGGCAUCUCUGAGAGAAAUGCC [A42G A94G U102C],0.77
13,UACGUAGGUGGUUUUCCCCUGAUAGUGCUAAGGGGGCCUGGGAGUUUGGACUGGGCAGAGCUCAACACAGCGUGGCAAAGUGGCUGUGGCUAGGCUGCCUCUCUGGAUACCUCGUCACUCAGCAGGGCAUCUCUGAGAGAAAUGCC [A42G A94G U109A],0.41
14,UACGUAGGUGGUUUUCCCCUGAUAGUGCUAAGGGGGCCUGGGAGUUUGGACUGGGCAGAGCUCAACACAGCGUGGCAAAGUGGCUGUGGCUAGACUGCCUCUCUGGGUUCCUCGUCACUCAGCAGGGCACCUCUGAGAGAAAUGCC [A42G A107G U130C],0.42
15,UACGUAGGUGGUUUUCCCCUGAUAGUGCUAAGGGGGCCUGGGAGUUUGGACUGGGCAGAGCUCAACACAGCGUGGCAAAGUGGCUGUGGCUAGACUGCCUCUCUGGAUUCCUCGUCGCUCAGCGGGGCAUCUCCGAGAGAAAUGCC [A42G A117G A124G U134C],1.02
16,UACGUAGGUGGUUUUCCCCUGAUAGUGCUAAGGGGGCCUGGGAGUUUGGACUGGGCAGAGCUCAACACAGCGUGGCAAAGUGGCUGUGGCUAGACUGCCUCUCUGGAUUCCUCGUCACUCGGCAGGGCAUCUCUGAGAGCAAUGCC [A42G A121G A140C],2.95
17,UACGUAGGUGGUUUUCCCCUGAUAGUGCUAAGGGGGCCUGGGAGUUUGGACUGGGCAGAGCUCAACACAGCGUGGCAAAGUGGCUGUGGCUAGACUGCCUCUCUGGAUUCCUCGUCACUCAGCUGGGCAACUCUGAGAGAAAUGCC [A42G A124U U130A],1.4
18,UACGUAGGUGGUUUUCCCCUGAUAGUGCUAAGGGGGCCUGGGAGUUUGGACUGGGAAGAGCUCAACACAGCGUGGCAAAGUGGCUGUGGCUAGACUGCCUCUCUGGAUUCCCCGUCACUCAGCAGGGCAUCUCUGAGAGAAAUGCC [A42G C56A U112C],0.04
19,UACGUAGGUGGUUUUCCCCUGAUAGUGCUAAGGGGGCCUGGGAGUUUGGACUGGGCAGAGCUCAACACAGCGUGGCAAAGUGGGUGUGGCUAGACUGCCUCUCUGGAUUCCUCGUCACUCAGCAGGGCAUCUCUGGGAGAAAUGCC [A42G C84G A136G],0.15
20,UACGUAGGUGGUUUUCCCCUGAUAGUGCUAAGGGGGCCUGGGAGUUUGGACUGGGCAGAGCUCAACACAGCGUGGCAAAGUGGUUGUGGCUAGACUGCCUCUCUGGGUUCCUCGUCACUCAGCAGGGCGUCUCUGUGAGAAAUGCC [A42G C84U A107G A129G A136U],0.15

row,Variant,self-cleavage
1,UACGUAGGUGGUUUUCCCCUGAUAGUGCUAAGGGGGCCUGGGAGUUUGGACUGGGCAGAGCUCAACACAGCGUGGCAAAGUGGCUGUGGCUAGACUGCCUUUCUGGAUUCCUCGUCACUCAGCAGGGCCUCUCUGAGAGAAACGCC [A42G C101U A129C U143C],1.88
2,UACGUAGGUGGUUUUCCCCUGAUAGUGCUAAGGGGGCCUGGGAGUUUAGGCUGGGCAGAGCUCAACACAGCGUGGCAAAGUGGCUGUGGCUAGACUGCCUCUCUGGAUUCCUCGUCACUCAGCAGGGCAUCUCUGAGAGAAAUGCC [A42G G48A A50G],0.88
3,UACGUAGGUGGUUUUCCCCUGAUAGUGCUAAGGGGGCCUGGGAGUUUGCACUGGGCAGAGCUCGACACAGCGUGGCAAAGUGGCUGUGGCUAGACUGCCUCUCUGGAUUCCUCGUCACUCAGCAGGGCAUCUCUGAGAGAAAUGCC [A42G G49C A64G],0
4,UACGUAGGUGGUUUUCCCCUGAUAGUGCUAAGGGGGCCUGGGAGUUUGUACUGGGCAGAGCUCAACACAGCGUGGCAUAGUGGCUGUGGCUAGGCCGCCUCUCUGGAUUCCUUGUCACUCAGCAGGGCACAUCUGAGAGAAGUGCC [A42G G49U A78U A94G U96C C113U U130C C131A A142G],0.04
5,UACGUAGGUGGUUUUCCCCUGAUAGUGCUAAGGGGGCCUGGGAGUUUGGACUAGGCAGAGCUCAACACAGCGUGGCAAAGUGGCUGUGGCUAGACUGCCUCUCUGGAUUCCUCGUCACACAGCAGGGCAUCUCUGAGAGAAAUGCC [A42G G53A U119A],1.45
6,UACGUAGGUGGUUUUCCCCUGAUAGUGCUAAGGGGGCCUGGGAGUUUGGACUGGACAGAGCUCGACACAGCGUGGCAAAGUGGCUGUGGCUAGACUGCCUCUCUGGAUUCCUCGUCACCCAGCAGGGCAUCUCUGAGAGAAAUGCC [A42G G55A A64G U119C],0.07
7,UACGUAGGUGGUUUUCCCCUGAUAGUGCUAAGGGGGCCUGGGAGUUUGGACUGGACAGAGCUCAACACAGCGUGGCAAAGUGGCCGUGGCUAGACUGCCUCUCUGGAUUCCUCGUCACUCAGCAGGGCAUCUCUGAGAGGAAUGCC [A42G G55A U85C A140G],0.09
8,UACGUAGGUGGUUUUCCCCUGAUAGUGCUAAGGGGGCCUGGGAGUUUGGACUGGGCAGAGCUCAACACAGCAUGGCAAAGUGGCUGUGGCUAGACUGCCUCUCUGGAUUCCUCGUCACUCAGCAGGGCAUCUCUGAGUGAGAUGCC [A42G G72A A138U A141G],1.74
9,UACGUAGGUGGUUUUCCCCUGAUAGUGCUAAGGGGGCCUGGGAGUUUGGACUGGGCAGAGCUCAACACAGCGUGACAAAGUGGCUGUGGCUAGACUGCCUCUCUGGAAUCCUCGUCACUCAGCAGGGCAUCUCUGAGAGAAAUGCC [A42G G75A U108A],0.74
10,UACGUAGGUGGUUUUCCCCUGAUAGUGCUAAGGGGGCCUGGGAGUUUGGACUGGGCAGAGCUCAACACAGCGUGCCAAAGUGGCUGUGGCUAGACUGCCACUCUGGAUUCCUCGUCACUCUGCAGGGCACCUCUGAGAGAGAUGCC [A42G G75C U100A A121U U130C A141G],0.24
11,UACGUAGGUGGUUUUCCCCUGAUAGUGCUAAGGGGGCCUGGGAGUUUGGACUGGGCAGAGCUCAACACAGCGUGGCAAAGUGGCUGUAGCUGGACUGCCUCUCUGGAUUCCUCGUCACUCAGCAGGGCAUCUCUGAGAGAAAUGCC [A42G G88A A92G],0.07
12,UACGUAGGUGGUUUUCCCCUGAUAGUGCUAAGGGGGCCUGGGAGAUUGGACUGGGCAGAGCUCAACUCAGCGUGGCAAAGUGGCUGUGGCUAGACUGCCUCUCUGGAUUCCUCGUCACUCAGCAGGGCAUCUCUGAGAGAAGUGCC [A42G U45A A67U A142G],0.1
13,UACGUAGGUGGUUUUCCCCUGAUAGUGCUAAGGGGGCCUGGGAGAUUGGACUGGGCAGAGCUCAACACGGCGUGGCAAAGUGGCUGUGGCUAGACUGCCUCUCUGGAUUCCUCGUCACUCAGCAGGGCAUCUCUGAGAGAAAUGCC [A42G U45A A69G],0.32
14,UACGUAGGUGGUUUUCCCCUGAUAGUGCUAAGGGGGCCUGGGAGAUUUGACUGGGCAGAGCUCAACACAGCGUGGCAAAGUGGCUGCGGCUAGACUGCCUCUCUGGAUUCCUCGUCACUCAGCAGGGCAUCUCCGAGGGAAAUGCC [A42G U45A G48U U87C U134C A138G],0.16
15,UACGUAGGUGGUUUUCCCCUGAUAGUGCUAAGGGGGCCUGGGAGAUUGGACUGGGCAGAGCUCAACACAGCGUGGCAAAGUAGCUGUGGCUAGACUGCCUCUCUGGAUUCCUCGUCACUCAGCAGGGCAUCUCUGAGAGAAAUGCC [A42G U45A G82A],1.5
16,UACGUAGGUGGUUUUCCCCUGAUAGUGCUAAGGGGGCCUGGGAGCUUGGACUGGGCAGAGCUCAACACAGCGUGGCAGAGUGGCUGUGGCUAGACUGCCUCUCUGGAUUCCUCGUCACUCAGCAGGGCAACUCUGAGAGAAAUGCC [A42G U45C A78G U130A],0.84
17,UACGUAGGUGGUUUUCCCCUGAUAGUGCUAAGGGGGCCUGGGAGUAUGGACUGGGCAGAGCUCAACACAGCGUGGCAAAGUGGCUGUGUCUAGACUGCCUCUCUGGAUUCCUCGUCACUCAGCAGGGCAUCUCUGAGAGAAAUGCC [A42G U46A G89U],0.02
18,UACGUAGGUGGUUUUCCCCUGAUAGUGCUAAGGGGGCCUGGGAGUCCGGACUGGGCAGAGCUCAACACAGCGUGGCAAAGUGGCUGUGGCUAGACUGCCUCUCUGGAUUCCUCGUCACUCAGCAGGGCAUCUCUGAGAGAAAUGCC [A42G U46C U47C],1.04
19,UACGUAGGUGGUUUUCCCCUGAUAGUGCUAAGGGGGCCUGGGAGUCUGGACUGGGCAGAGCUCAACACAGCGUGGCAAAGUGGCUGUGGCUAGACUGCCUCUCAGGAUUCCUCGUCACUCAGCAGGGCAUCUCUGAGAGAAGUGCC [A42G U46C U104A A142G],1.07
